Among all 310,000 compounds or so, about 2,200 (0.71%) showed an effect of 50% or more. The effect is printed as a negative number. The list shows a part of the results.

The target in the test is human ether-à-go-go-related gene (hERG) potassium channel (human, UniProt Q12809). The test can be described thus: primary screen, population patch clamp on CHO cells stably expressing hERG.
Chain of human ether-à-go-go-related gene (hERG) potassium channel (Q12809 whole entry, looked up): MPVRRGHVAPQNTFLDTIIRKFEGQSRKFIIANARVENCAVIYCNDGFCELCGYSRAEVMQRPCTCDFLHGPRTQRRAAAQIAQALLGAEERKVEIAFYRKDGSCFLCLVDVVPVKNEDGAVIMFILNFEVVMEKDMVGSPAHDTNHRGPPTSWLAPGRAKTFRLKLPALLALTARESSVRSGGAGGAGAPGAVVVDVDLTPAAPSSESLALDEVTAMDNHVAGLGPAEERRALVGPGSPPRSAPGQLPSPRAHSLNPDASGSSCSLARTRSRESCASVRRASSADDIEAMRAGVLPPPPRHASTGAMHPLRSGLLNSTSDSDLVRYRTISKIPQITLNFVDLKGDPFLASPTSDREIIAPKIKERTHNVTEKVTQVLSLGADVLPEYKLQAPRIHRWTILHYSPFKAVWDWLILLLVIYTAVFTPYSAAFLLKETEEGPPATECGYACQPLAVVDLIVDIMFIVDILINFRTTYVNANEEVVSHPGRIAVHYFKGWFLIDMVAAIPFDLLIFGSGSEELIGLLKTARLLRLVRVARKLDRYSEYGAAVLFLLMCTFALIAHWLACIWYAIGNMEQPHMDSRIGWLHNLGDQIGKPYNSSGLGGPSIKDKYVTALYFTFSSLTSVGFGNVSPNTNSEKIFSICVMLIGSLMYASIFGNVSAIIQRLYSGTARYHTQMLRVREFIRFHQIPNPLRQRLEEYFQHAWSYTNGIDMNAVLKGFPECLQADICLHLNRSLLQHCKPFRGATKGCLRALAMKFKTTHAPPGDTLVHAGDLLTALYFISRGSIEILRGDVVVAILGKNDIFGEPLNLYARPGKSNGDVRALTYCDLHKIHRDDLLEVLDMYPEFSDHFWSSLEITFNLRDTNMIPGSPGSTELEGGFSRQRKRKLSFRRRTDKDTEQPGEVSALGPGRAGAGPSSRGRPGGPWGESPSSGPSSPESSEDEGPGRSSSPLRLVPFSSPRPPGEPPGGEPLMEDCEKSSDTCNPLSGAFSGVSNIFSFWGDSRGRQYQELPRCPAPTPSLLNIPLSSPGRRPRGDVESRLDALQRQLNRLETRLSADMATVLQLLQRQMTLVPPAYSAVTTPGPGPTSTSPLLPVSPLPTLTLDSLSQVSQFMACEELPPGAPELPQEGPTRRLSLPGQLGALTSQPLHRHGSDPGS
With `Cc1ccc(N2CC(C(=O)NC3=NCCS3)CC2=O)cc1C` (centres unmarked), the “hERG current change (%, negative = inhibition) at 1uM” value is -2.4%. For the compound `C#CC1(NC(=O)NC(=O)c2c(F)cccc2F)CCCCC1`, the “hERG current change (%, negative = inhibition) at 1uM” value amounted to 13.7%.

For the compound `O=C(N/N=C/c1cn(-c2cccs2)nc1-c1ccccc1)c1ccccc1Br`, the “hERG current change (%, negative = inhibition) at 1uM” value came to 13.4%. As for `Cc1ccc(-c2nnc(OCc3nc4ccccc4n3C)c3ccccc23)cc1`, the figure is 4.92%; as for `CCCc1cc(N2CCCC(C(=O)NCC)C2)n2ncnc2n1` (centres unmarked), -2.06%. As for `Cc1cc(NC(=O)c2ccc(S(=O)(=O)N(C)C)cc2)no1`, the figure is 12.3%.

Regarding `CC(Oc1ccc2c3c(c(=O)oc2c1)CCC3)C(=O)NCc1ccccn1` (centres unmarked), the “hERG current change (%, negative = inhibition) at 1uM” value was determined as 15.9%.

Regarding `CCCOc1cccc(-c2nnc(N)s2)c1`, the “hERG current change (%, negative = inhibition) at 1uM” value came to 6.45%. As for `O=C(Nc1ccncc1)c1cccc(S(=O)(=O)N2CCOCC2)c1`, the figure is -19.6%; as for `Cc1cc(NC(=O)c2sccc2C)n(-c2nc3ccccc3[nH]2)n1`, 12.6%.

Consider `COC(=O)c1ccc(C2c3[nH]c4ccccc4c3C[C@H]3C(=O)N(C4CCN(Cc5ccccc5)CC4)CC(=O)N23)cc1` (some centres unmarked), for which the “hERG current change (%, negative = inhibition) at 1uM” value is 7.9%. As for `OCCOc1ccc(CN2CCCC(N3CCN(c4ccc(F)cc4)CC3)C2)cc1` (centres unmarked), the figure is -39.5%. As for `OC(COc1ccc(Cl)cc1Cl)Cn1ccnc1` (centres unmarked), the figure is 11.4%; as for `CC(=O)c1ccc(OC(=O)C(CCS(C)(=O)=O)N2C(=O)c3ccccc3C2=O)cc1` (centres unmarked), 10.9%. For the compound `O=C(C1Cc2ccccc2CN1S(=O)(=O)c1ccc(F)cc1)N1CCCCCC1` (centres unmarked), the “hERG current change (%, negative = inhibition) at 1uM” value is 8.92%. As for `O=C(CSc1nc2ccc(S(=O)(=O)N3CCOCC3)cc2[nH]1)N1CCOCC1`, the figure is 11.7%. As for `CCCN(c1ccc(C)cc1)c1nc(=O)c2cccnc2s1`, the figure is 3.01%; as for `CC(=O)c1c(C)n(CCCOC(C)C)c2ccc(O)cc12`, 5.89%. As for `COc1c(C)oc2cc(O)ccc2c1=O`, the figure is 8.93%. For `CN(C)CCN(C(=O)CCc1ccccc1)c1nc2c(F)cc(F)cc2s1.Cl`, the “hERG current change (%, negative = inhibition) at 1uM” value is listed as 10.7%. For `CCOc1ccccc1NC(=O)CN(c1ccc(C)cc1)S(=O)(=O)c1c(C)n[nH]c1C`, the “hERG current change (%, negative = inhibition) at 1uM” value stood at 18.7%. Regarding `Cc1ccccc1S(=O)(=O)c1cc2ccccc2nc1N`, the “hERG current change (%, negative = inhibition) at 1uM” value amounted to 11.6%. As for `CCOC(=O)c1c(C)[nH]c(=S)c(C#N)c1-c1ccc(OC)cc1`, the figure is 13.3%; as for `Cc1ccc(NC(=O)CCCc2ccccc2)c([N+](=O)[O-])c1`, 17.7%; as for `CCOC(=O)CNC(=O)C(=O)c1c(O)[nH]c2ccccc12`, 11.8%.

With `CCc1ccc(OCC(=O)Nc2cccc3c2CCCC3)cc1`, the “hERG current change (%, negative = inhibition) at 1uM” value was 16.1%. As for `Cc1cc(S(=O)(=O)N2CCOCC2)ccc1OCC(=O)Nc1ccc(Br)cc1F`, the figure is 17.7%; as for `CCCCn1c(SCC(N)=O)nc2c(sc3ccccc32)c1=O`, 5.58%; as for `CC(=O)NC(CC(=O)NC(C)c1ccc(Cl)cc1Cl)c1ccccc1` (centres unmarked), -2%. As for `O=c1c2ccccc2ncn1-c1cccc(Cl)c1`, the figure is 9.06%; as for `CC1(C(=O)N(CC(=O)NC2CCCC2)C2CCCC2)CC(=O)N=C2C=CC=CN21` (centres unmarked), 20.7%. With `Cc1cc(N2CCOCC2)ncc1[N+](=O)[O-]`, the “hERG current change (%, negative = inhibition) at 1uM” value is listed as -1.46%. For the compound `Cc1cc(Nc2ccccc2)c2c([N+](=O)[O-])c(C)cc(C)c2n1`, the “hERG current change (%, negative = inhibition) at 1uM” value is 3.36%. As for `COc1ccc(NC(=O)Cc2ccccc2F)cc1S(=O)(=O)N1CCCCC1`, the figure is 15.5%.

Consider `CC(=O)NS(=O)(=O)c1ccc(NC(=O)CC(C)c2ccccc2)cc1` (centres unmarked), for which the “hERG current change (%, negative = inhibition) at 1uM” value turned out to be 2.97%.

In the case of `Nc1ccccc1SCc1cn2cccnc2n1`, the “hERG current change (%, negative = inhibition) at 1uM” value is recorded as 4.81%. Consider `CCN(CC)CCNc1nc(-c2ccccc2)c2c(c1C#N)CC(C)(C)OC2`, for which the “hERG current change (%, negative = inhibition) at 1uM” value is on record as -49.7%.

As to `O=C(CCSc1ccc(Cl)cc1)NC12CC3CC(CC(C3)C1)C2`, the “hERG current change (%, negative = inhibition) at 1uM” value amounted to 21.1%. As for `COc1ccc(N2CCN(CC(O)COc3c(OC)cccc3OC)CC2)cc1.Cl` (centres unmarked), the “hERG current change (%, negative = inhibition) at 1uM” value is on record as -7.71%. For the compound `CCOc1cc(CNCC2CCCO2)cc(Br)c1OCC(N)=O.Cl` (centres unmarked), the “hERG current change (%, negative = inhibition) at 1uM” value is recorded as 5.37%. As for `Cc1cccc(NC(=O)[C@@H](NC(=O)[C@@H]2Cc3ccccc3CN2)C(C)C)c1`, the figure is -29.7%. As for `CC(=O)Nc1ccc(S(=O)(=O)N2CCCC(C(=O)N3CCN(c4ccccc4)CC3)C2)cc1` (centres unmarked), the figure is -1.2%; as for `COc1ccc(CNC(=O)CCC(=O)N2CC(C)Oc3ccccc32)cc1` (centres unmarked), -0.874%; as for `Cc1cc(=O)n2[nH]c(=O)c(N=Nc3ccccc3)c2[nH]1`, 5.12%. As for `COc1cc(OC)c(OC)cc1/C=N/Nc1ncnc2c1[nH]c1ccccc12`, the figure is -4.45%; as for `CCOC(=O)c1[nH]c2ccc(OC)cc2c1NC(=S)N1CCN(c2ccc(F)cc2)CC1`, 8.21%; as for `COc1cc2c(cc1NC(=O)c1ccco1)CCCC2`, 6.74%. Take `CC1CC(=O)Nc2ccccc2N1S(=O)(=O)c1ccc(Cl)cc1` (centres unmarked): the “hERG current change (%, negative = inhibition) at 1uM” value worked out at 14.5%. As for `COC(=O)C1C(O)=C(C=NCc2ccccc2)C(=O)CC1(C)C` (centres unmarked), the figure is -0.0891%. As for `CS(=O)(=O)c1ccc(Cl)c(NC(=O)COC(=O)c2c(Cl)cccc2Cl)c1`, the figure is 6.65%; as for `CCC(=O)N/C(=N/c1nc(C)cc(C)n1)Nc1ccccc1`, 8.14%. For `O=c1[nH]c2ccccc2n1C1=CCCC1`, the “hERG current change (%, negative = inhibition) at 1uM” value was -5.82%. As for `COc1ccccc1NC(=S)NC1CCC(CC2CCC(NC(=S)Nc3ccccc3OC)CC2)CC1` (centres unmarked), the figure is 10.5%; as for `Cc1ccc(NC(=O)NC(=O)CSc2n[nH]c(N)n2)c(C)c1`, 13.9%; as for `CCOC(=O)N1CCN(C(=O)NC23CC4CC(CC(C4)C2)C3)CC1`, 3.33%. For `COc1ccc(-c2noc(-c3cc(C)cc(C)c3)n2)cc1OC`, the “hERG current change (%, negative = inhibition) at 1uM” value amounted to 15.7%. As for `CC(C)(C)NC(=O)CN(C(=O)c1csnn1)c1ccccc1-c1ccccc1`, the figure is 9.62%; as for `CN(C)c1ccc(C(=O)NN2C(=O)c3ccccc3C2=O)cc1`, 25%. As for `Cn1c(=O)c2cc(S(=O)(=O)NC(C(=O)N3CCCCCC3)c3ccccc3)ccc2n(C)c1=O` (centres unmarked), the figure is 5.17%.

`COc1ccc(Cc2nnc3sc(SCC(=O)Nc4ccccc4)nn3c2=O)cc1OC`: the “hERG current change (%, negative = inhibition) at 1uM” value is recorded as 2.91%.

`O=C(CSc1ncnc2[nH]ncc12)Nc1cccc(Oc2ccccc2)c1`: the “hERG current change (%, negative = inhibition) at 1uM” value is -0.655%. As for `CC[C@@H]1C(=O)OC[C@@H]1Cc1cncn1C.O=[N+]([O-])O`, the figure is 9.36%; as for `COC(=O)C1CCN(Cc2ccc(OCCCN3CCN(c4ccc([N+](=O)[O-])cc4)CC3)cc2)CC1`, 1.13%. As for `CNC(=S)N1CCN(C(=O)C2CCCO2)CC1` (centres unmarked), the figure is 10.5%; as for `CC(C)C(C)NC(=O)COc1ccc(Sc2ccc(OCC(=O)NC(C)C(C)C)cc2)cc1` (centres unmarked), -10.1%; as for `Cc1ccc(N2CC(C(=O)N3CCc4ccccc4C3)CC2=O)cc1` (centres unmarked), -17.7%. As to `O=C(NCCO)c1cc2c(s1)CCC2`, the “hERG current change (%, negative = inhibition) at 1uM” value stood at 7.67%.

Turning to `COc1ccc(OC)c(Nc2ncnc3c2cnn3-c2ccccc2)c1`, the “hERG current change (%, negative = inhibition) at 1uM” value is on record as 9.51%. As for `COc1ccc(-c2cc(C(F)F)n3ncc(C(=O)N4CCc5ccccc5C4)c3n2)cc1`, the figure is 12%; as for `CC(NC(=O)c1cc2ccccc2o1)c1ccccc1` (centres unmarked), 17.2%; as for `CC1=C(C#N)C(/C=N/OCc2ccc(Cl)cc2)CC(=O)N1` (centres unmarked), -3.7%. As for `CN1C(=O)/C(=C/c2ccc(OCc3ccc(C(=O)O)cc3)c(Cl)c2)NC1=S`, the figure is 16.6%; as for `COc1ccc(CN2C(=O)CS(=O)CC2=O)cc1OC`, 12.2%.

Take `Cc1ccc2c(SCC(=O)NCc3ccco3)nc(-c3ccc(F)cc3)nc2c1`: the “hERG current change (%, negative = inhibition) at 1uM” value is given as -0.816%. As for `COc1cc(CC(=O)OCC(=O)N2CC(=O)Nc3ccccc32)cc(OC)c1OC`, the figure is 2.52%; as for `CCOC(=O)[C@H]1[C@H]2COc3cc(OC)ccc3[C@@H]2N2C(=O)c3cc(OC)c(OC)cc3NC(=O)[C@@]12C`, 10.7%.

On to `CCC(Sc1nncn1C)C(=O)Nc1nnc(-c2ccccc2Cl)s1` (centres unmarked), for which the “hERG current change (%, negative = inhibition) at 1uM” value worked out at 7.21%. With `O=C(CC1CCCC1)NCCc1cn2ccccc2n1`, the “hERG current change (%, negative = inhibition) at 1uM” value came out at 8.21%. As for `Cc1csc(NC(=O)CCC(=O)N(CC(=O)NC2CCCC2)Cc2ccccc2)n1`, the figure is -5.1%. As for `N#Cc1c2c(c[nH]c1=O)CCN2Cc1ccccc1`, the figure is 10.8%; as for `CCCCN(CC)c1nc(N)c(C#N)c(CC#N)c1C#N`, -8.11%; as for `CN1CCN(C(=O)c2cnn3c(C(F)(F)F)cc(-c4ccc5c(c4)OCO5)nc23)CC1`, -0.295%. As to `Cc1cc(C(=O)NC2CCCc3ccccc32)ccc1[N+](=O)[O-]` (centres unmarked), the “hERG current change (%, negative = inhibition) at 1uM” value is listed as 11.9%. Turning to `O=C(O)COc1cccc(NC(=O)C2CCCO2)c1` (centres unmarked), the “hERG current change (%, negative = inhibition) at 1uM” value was 14.7%.

For the compound `COc1cc(C(=O)O)c2ccccc2n1`, the “hERG current change (%, negative = inhibition) at 1uM” value came to 11.5%. As for `Cc1cc(NC(=O)CSc2nc3ccccc3c(=O)n2C2CCCC2)no1`, the figure is 5.97%; as for `O=C(Cc1noc2ccccc12)Nc1ccccn1`, 8.9%.

For the compound `O=C(OCC(=O)c1ccc(Cl)cc1Cl)c1ccc2c(c1)C(=O)N(c1cccc3ncccc13)C2=O`, the “hERG current change (%, negative = inhibition) at 1uM” value is given as 1.87%. Turning to `Cc1ccc(C(=O)Cn2cnc3ccccc3c2=O)cc1C`, the “hERG current change (%, negative = inhibition) at 1uM” value was 10.3%.

The record behind these values is publication PMC4336329 (PLoS ONE, 2015).
